Test results published in patent US20070009544A1, “Anti-allergic complex molecules” (priority 1999, published 2007).
Not every detail of the peptide structures is certain; ends, links or a residue may be inferred. Marks after values point to notes of the source that are not given here. Ends that are not written are not given here.

Legend:
[1] = tested on: Mitogen-activated protein kinases (MAPKs); assay: Activation of MAP kinase in mast cells (anti active MAPK immunoblot); type: cell-based, rat; details: 600 μg/ml peptide
[2] = tested on: abdominal skin of C.R rats; assay: Rat skin test: intradermal injection of peptide, then intradermal compound 48/80 or vehicle, wheal area; type: in vivo; details: for Mean wheal size, compound 48/80-induced cutaneous reaction: Fenistil Gel 100 mg t.a., Cromoglycate 20 mg/ml i.d., Peptide 2 10 mg/ml i.d.; for Mean Wheal Area ± STD, Compound 48/80 (0.1 mg/ml): Tables 17A-B; for block of compound 48/80 induced allergic reaction in vivo, rat skin (words): intradermal peptide, dose and timing as in the sentence
Experimental: The hair of the abdominal area of C.R rats was carefully removed with an electric clipper and a depilatory cream. In each animal the abdominal area was divided to six equal zones that were marked by pen. Each zone was either subjected to peptide treatment or served as a control. In the first set of experiments, the peptide was topically applied as follows: 36 μl of peptide solution at the indicated concentration (dissolved in 72% DMSO in saline) was applied on desired abdominal area. In the second set of experiments, the peptide was injected intradermally as follows: 20 μl of peptide solution at different concentrations (dissolved in 10% DMSO in saline) was injected intradermally to an indicated abdominal area using a 27-gauge sterile needle.
Skin tests were performed 0.5, 1 or 2 hours following application of the peptide. Skin tests were performed by injecting intradermally 20 μl of the allergen (0.1 mg/ml compound 48/80 dissolved in saline) or saline alone, into the center of each marked area on the abdominal skin using a 27-gauge sterile needle. The allergic response was monitored by outlining with a marker the wheals which developed in response to allergen or saline treatment.
To quantitate the skin test results, the marker signs were transferred onto paper with scotch tape. The areas of the wheals were outlined and calculated by a computerized planimeter (Hewlett-Packard), as previously described (Sussman et al., 1982).
Tables 10-16 presents the mean areas of the wheals, which developed in response to intradermal injection of each of the tested peptides, followed by either compound 48/80 or DDW injection applied after 0.5 or 1 hour. Two doses were tested for each peptide-20 and 200 μg (injection of 20 μl from a stock solution of 1 mg/ml or 10 mg/m respectively).
Skin tests on rats using compound 48/80 as the allergen assessed the ability of the peptides of the present invention to block allergic cutaneous reactions. The abdominal skin of the rats was subjected to peptide (indicated concentrations are listed in Tables 17A-17B below) or vehicle treatment (intradermal injection); the allergic response was induced by intradermal injection of compound 48/80 at various times; and the allergic response was quantified by calculating the area of the resultant allergic wheals.

AAVALLPAVLLALLAPKNNLKECGLY [Peptide 2] was tested, and the “activation of MAPKs induced by H2O2/VO3” value [1] was “did not inhibit”, the “MAPKs activation induced by compound 48/80” value ([1]; 5 μg/ml compound 48/80) was “inhibition” and the “Mean wheal size, compound 48/80-induced cutaneous reaction” value ([2]; 0.5 hour incubation, Ceterizine 0.01 mg/ml i.d., no treatment 115.5 ± 30.4) was 77.3 ± 20.9 mm^2. The “Mean wheal size, compound 48/80-induced cutaneous reaction” value ([2]; 1 hour incubation, no treatment 123.3 ± 33.9) was 69.3 ± 11.7 mm^2, the “Mean Wheal Area ± STD, Compound 48/80 (0.1 mg/ml)” value ([2]; column head '0.1' (no unit), 0.5 hr prior to allergy induction) was 79.5 ± 14.6 (n = 12) mm^2 and the “Mean Wheal Area ± STD, Compound 48/80 (0.1 mg/ml)” value ([2]; column head '0.1' (no unit), 1 hour prior to allergy induction) was 79.8 ± 22.2 (n = 5) mm^2. For the same sequence, the “Mean Wheal Area ± STD, Compound 48/80 (0.1 mg/ml)” value ([2]; column head '1' (no unit), 0.5 hr prior to allergy induction) was 77.3 ± 20.9 (n = 19) mm^2, the “Mean Wheal Area ± STD, Compound 48/80 (0.1 mg/ml)” value ([2]; column head '1' (no unit), 1 hour prior to allergy induction) was 69.3 ± 11.7 (n = 5) mm^2 and the “potency against compound 48/80 cutaneous reaction compared with gold standards” value ([2]; applied 0.5 hour prior to induction) was “as potent as the gold standard Cromoglycate, and more potent than Fenistil Gel and Ceterizine”. For the same sequence, the “potency against compound 48/80 cutaneous reaction compared with gold standards” value ([2]; applied one hour prior to induction) was “efficacy similar to Fenistil Gel and better than Cromoglycate”, the “Net wheal area, effect of peptide on compound 48/80 induced weal response” value (shortened to “Net wheal area, effect of peptide”) ([2]; intradermal 1 mg/ml, Animal A, 0.5 hour) was 75.7 mm2 and the “Net wheal area, effect of peptide” value ([2]; intradermal 1 mg/ml, Animal B, 1 hour) was 1.6 mm2. For the same sequence, the “Net wheal area, effect of peptide” value ([2]; intradermal 1 mg/ml, Animal C, 2 hours) was 41.2 mm2, the “Net wheal area, effect of peptide” value ([2]; intradermal 10 mg/ml, Animal A, 0.5 hour) was 21.3 mm2 and the “Net wheal area, effect of peptide” value ([2]; intradermal 10 mg/ml, Animal B, 1 hour) was 5.3 mm2. The “Net wheal area, effect of peptide” value ([2]; intradermal 10 mg/ml, Animal C, 2 hours) was 15 mm2, the “Mean Wheal Area ± STD, Compound 48/80” value ([2]; intradermal peptide 1 mg/ml, 0.5 hour before allergic induction) was 80.6 ± 16.3 (n = 7) mm^2 and the “Mean Wheal Area ± STD, Compound 48/80” value ([2]; intradermal peptide 1 mg/ml, 1 hour before allergic induction) was 79.8 ± 22.2 (n = 5) mm^2. For the same sequence, the “Wheal area, compound 48/80 injection” value ([2]; intradermal peptide 1 mg/ml, animal a, 0.5 hour) was 141.5^a mm2, the “Wheal area, compound 48/80 injection” value ([2]; intradermal peptide 1 mg/ml, animal b, 1 hour) was 120.8^b mm2 and the “Wheal area, compound 48/80 injection” value ([2]; intradermal peptide 1 mg/ml, animal c, 2 hours) was 118.5^c mm2. The “Mean Wheal Area ± STD, Compound 48/80” value ([2]; intradermal peptide 10 mg/ml, 0.5 hour before allergic induction) was 74.9 ± 15.0 (n = 5) mm^2, the “Mean Wheal Area ± STD, Compound 48/80” value ([2]; intradermal peptide 10 mg/ml, 1 hour before allergic induction) was 69.3 ± 11.7 (n = 5) mm^2 and the “Wheal area, compound 48/80 injection” value ([2]; intradermal peptide 10 mg/ml, animal a, 0.5 hour) was 82.06^a mm2. For the same sequence, the “Wheal area, compound 48/80 injection” value ([2]; intradermal peptide 10 mg/ml, animal b, 1 hour) was 107.6^b mm2, the “Wheal area, compound 48/80 injection” value ([2]; intradermal peptide 10 mg/ml, animal c, 2 hours) was 72.77^c mm2 and the “block of compound 48/80 induced allergic reaction in vivo, rat skin (words)” value [2] was “significant inhibition”. For the same sequence, the “block of compound 48/80 induced allergic reaction in vivo, rat skin (words)” value ([2]; listed as peptide 2) was “effectively blocked the cutaneous allergic response in vivo”.
